Results as given in publication PMC12136788.
Positions count from the first letter of the chain named. This is one part of the list.

T1: UNK ZnF1-3 (human, UniProt Q9C0B0 31-174)
T1 sequence: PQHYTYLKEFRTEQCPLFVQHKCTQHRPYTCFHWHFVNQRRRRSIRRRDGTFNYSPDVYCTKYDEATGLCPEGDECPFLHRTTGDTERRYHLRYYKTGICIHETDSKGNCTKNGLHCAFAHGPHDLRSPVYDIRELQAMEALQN

B1: 46969061_46972098_759_3pUTR_ENSMUSG00000025041_ENSMUST00000168536|mouse|control|control (ssRNA)
RNA: GGGAGUUCUACAGUCCGACGAUCCUUCAUUCGGCUCAGAAGCAACGGCAACUUGCCAUCCUUGACGACAUACUUCUCAAGAUUUUCAACCGUCUUCUCCUUAAGGGAGCCCUUGUAAUGGACCCAGUCCACUGCGUCUCUUACCAACAGAGGAUUGAGCAUCA
B2: 60567234_60567354_1112_CDS_ENSMUSG00000020097_ENSMUST00000092498|mouse|control|control (ssRNA)
RNA: GGGAGUUCUACAGUCCGACGAUCGGUCACACCUUUCACCCGGAAAUCAAAUGGUUUCUCCAGUGGGUACCCUGCUUUCUCCAUGAAGACAAUGAGGAAGCCCCCCAGACAAGCAUCCACAUGGAGUGGGAUUUUAUAUCUGACCAACAGAGGAUUGAGCAUCA
B3: chr2:48026839:48026840:+_ENSG00000116062_ENST00000540021|hu_hu|hu_hu_hu_mus_False|18_98 (ssRNA)
RNA: GGGAGUUCUACAGUCCGACGAUCAUAGUGAGCCACUAGAGUCCUAAAUCUGGAACAGUGGCGGUCAUCCGAAAACUGGCCGAUGAAAAACUUGCCCAGUGAAGUGUCCACAAAGCACACACCAUAUACACGAGUGUGACCAGACAACAGAGGAUUGAGCAUCA
B4: chr14:59855892:59855893:+_ENSMUSG00000035469_ENSMUST00000043227|mus_hu|FALSE|FALSE (ssRNA)
RNA: GGGAGUUCUACAGUCCGACGAUCUUCCAUUAUUACAUUAGAUGAAAAAAUCAAUUCAAAUAAGAGUUGUCAUAUCCUGCUAUGAUUAACAAAAAAACAAGUAGAAAAAUAAGAGAGUGUAUUUAAAAAAAAUAAUCAAAUGCUCAACAGAGGAUUGAGCAUCA
B5: 63627622_63628296_5786_CDS_ENSMUSG00000028364_ENSMUST00000107372|mouse|control|control (ssRNA)
RNA: GGGAGUUCUACAGUCCGACGAUCGUAGAGGCCAGAGGUAGUAUCACCAUUCAACAUUGCUUGAGAGCAGUCCCUGGGGAAUGGGUACAGGAGUCCAAUUGUUGUGAAGAUGGUUUGGAUCAGCUUGCUCCUCAGGGACCCACUCAACAGAGGAUUGAGCAUCA
B6: chr3:10015032:10015033:+_ENSMUSG00000027533_ENSMUST00000029046|mus_mus|mus_mus_mus_hu_True|38_108 (ssRNA)
RNA: GGGAGUUCUACAGUCCGACGAUCGUUGUUGCCAUCACAAGUGAUGAUACAAUCUGGCUUGGCCAUUGCGCCCAUUUUUCGCAAAGCUAUUCCCACUCCUAGCUCUUUCAUGUAUUCAUCAAAGCCUUUGCUGUCCACCAGGCGCAACAGAGGAUUGAGCAUCA
B7: 18900888_18903581_980_CDS_ENSG00000157106_ENST00000446231|human|control|control (ssRNA)
RNA: GGGAGUUCUACAGUCCGACGAUCCUCCUGAAGCAAUUUGCUACUUUCAUUAAGCACGUCAUGUACAGCAGCCAAGAUAUUAUCCAAUUGUUUAACUAGUACCAGCUUAUUUUCUGGUUGCUGAAUAAAUUCUUUCAACUGCUUCAACAGAGGAUUGAGCAUCA
B8: chr3:176767854:176767855:-_ENSG00000177565_ENST00000430069|hu_hu|hu_hu_hu_mus_False|48_78 (ssRNA)
RNA: GGGAGUUCUACAGUCCGACGAUCGACAUCCUUGUUACUGGGCACGUCCUGCCCUCCUUCUCGUAUACAGUGUCUAAGCACGAGCUGUGUAGAGCCACUCGUGCUGUUCUCACUGAGGUUCCAGAUUCUUGCCGUGGAGUCUCCCAACAGAGGAUUGAGCAUCA
B9: chrX:41002637:41002638:+_ENSG00000124486_ENST00000378308|hu_hu|FALSE|FALSE (ssRNA)
RNA: GGGAGUUCUACAGUCCGACGAUCUGCUGCCCAGAUAUUAUCAAGAUCCUGUAAGGUCAGAGCUUUUUCUUUGAUGACAAAACGAAGAAUCUUCUCUAACUUUUCUACAUACUGUGGCUGAUGAAGACUAUCUCGCAACACUAUCAACAGAGGAUUGAGCAUCA
B10: chr9:35067926:35067927:-_ENSG00000165280_ENST00000358901|hu_hu|motif|central (ssRNA)
RNA: GGGAGUUCUACAGUCCGACGAUCUGGCUGGAUGCUGAUGACAUCCCCUAGGCGUACACGAAGGUUAUUCCGAACAACUCGGUUCAUCCGAAUCUUCUCAUCAGAACAAGUAUCAUCAGAAAGGACGAUGCAAACAGCUUCUCGCAACAGAGGAUUGAGCAUCA
B11: chr7:56127271:56127272:+_ENSG00000146731_ENST00000540286|hu_mus|FALSE|FALSE (ssRNA)
RNA: GGGAGUUCUACAGUCCGACGAUCAUACUCAUAGACAAGCUCUGCAUGUCCCAAACAGUCAGGAUUCAGGUCAUCAAAGGAAUUCAGAGCUAUCCCACCACAAGCAAGUGUCAGCCUCUCCAUGUUUCUCCUCUUGGCUCUGCGCAACAGAGGAUUGAGCAUCA
B12: chr7:141450121:141450122:+_ENSG00000106028_ENST00000265304|hu_mus|hu_hu_hu_mus_True|1_1 (ssRNA)
RNA: GGGAGUUCUACAGUCCGACGAUCUCAUCCGUUCUAUGCCUUUUCUUUUGUCUGGUCACUCAGAAAUAUAAUGUUAUCAGCUAUGAUUGUUGUUGCUUGCCGCCUCACAUUGUUUUUAUCCAUGUACUCGCCAUAGUCUAUUUUCAACAGAGGAUUGAGCAUCA
B13: chr12:39756943:39756944:-_ENSG00000139116_ENST00000544797|hu_mus|hu_hu_hu_mus_False|1_108 (ssRNA)
RNA: GGGAGUUCUACAGUCCGACGAUCGGUUUGGCUAUUACCCCCAAGGGAAUCCUGCAAGAGUCUUGUCAGCUUAGAGUCUCUGUAAGGGACAUGGGUGGCUCUCUUGCUCUUGUCCCCCAAGGCGCUGAUUACAUUCCCAAGUGCCAACAGAGGAUUGAGCAUCA
B14: chrX:140365796:140365797:-_ENSMUSG00000031285_ENSMUST00000033642|mus_mus|mus_mus_mus_hu_False|58_98 (ssRNA)
RNA: GGGAGUUCUACAGUCCGACGAUCCUUCUCAUUACUCAAUGCCUGCAAGGUUCUGGUUCGGUAGAAGCUACAGUGGGCACUAUGAGUGGGGCUAGGCAACCCAUUCAUCCGGGAGCCUCGCAUGUUCCUGGAUGUCUUAUCUCUCAACAGAGGAUUGAGCAUCA
B15: chr1:117910967:117910968:+_ENSG00000198162_ENST00000356554|hu_mus|FALSE|FALSE (ssRNA)
RNA: GGGAGUUCUACAGUCCGACGAUCUUUUGAAGAGUCUGGAAGGAAGAAGAAUGCCCCAAAACACAGGGUGAUGAAGGCACUAAGGAUGAGGAGAAGGAUAAACUUCUCGGAGAGUCUCAAGGUAGCCCUGUGAUGUGGGAAGGACAACAGAGGAUUGAGCAUCA
B16: chr3:41281661:41281662:+_ENSG00000168036_ENST00000349496|hu_hu|FALSE|FALSE (ssRNA)
RNA: GGGAGUUCUACAGUCCGACGAUCCCUGCUUAUUUUAAGCAUAUUAAAAAGGAAACUAAUUGGACCAUUUUCUAUUUGUCUAUUUUAUACAAAAAGGCUACACAAUUGUUACACUUUAUUCAGAUUACAAUUAAUUAGAGUGAUCAACAGAGGAUUGAGCAUCA
B17: chr3:95657547:95657548:-_ENSMUSG00000015748_ENSMUST00000015892|mus_hu|FALSE|FALSE (ssRNA)
RNA: GGGAGUUCUACAGUCCGACGAUCCUUUGACAGUGCCAUUUUUCAGGAAAAAGAGAACAAUAGCUCAAACAGGACUCAAUACUACACCUCACAAACUUCAGCCCCUGAGACGGAGCCCGAACGUUACACCGGAACCGGAAACCUCAACAGAGGAUUGAGCAUCA
B18: chr7:141450121:141450122:+_ENSG00000106028_ENST00000265304|hu_mus|hu_hu_hu_mus_True|8_108 (ssRNA)
RNA: B12 RNA with G30U, U36C, G129A, U138C, U140C
B19: chr3:133126781:133126782:-_ENSMUSG00000040943_ENSMUST00000098603|mus_mus|FALSE|FALSE (ssRNA)
RNA: GGGAGUUCUACAGUCCGACGAUCCAGUAUUUAUAACCACCCUCAGAUUGUAUAAACAAAGCCAAAAUCUCAGGAAGUAAGCUACAUUAAAAAAUAAAGCAUAGAAAAAUGCACACAGAAGUUCAUUAUCUUAGUGUCAAACUGCAACAGAGGAUUGAGCAUCA
B20: chr16:94915998:94915999:+_ENSMUSG00000022897_ENSMUST00000023614|mus_mus|motif|central (ssRNA)
RNA: GGGAGUUCUACAGUCCGACGAUCCGCCCUCCUGACAGUGCUGUGCUCAAGGUGAGGCCUCUGUACGGAAAUGCUCAUCAACGGCCAAGCUCAAAACAAUCCACAGGCUUGACAUUUAAUUACAAAAUCAAUAUGGGUUUCCUGCAACAGAGGAUUGAGCAUCA
B21: 14520466_14521307_194_5pUTR_ENSG00000129083_ENST00000439561|human|control|control (ssRNA)
RNA: GGGAGUUCUACAGUCCGACGAUCGCCGUCAUGGUUUCUGGUUAUAUUAUAACCAAUCCUUGACACAAGAUUUAAGGAUGCCAGAAAAUCACGCCUCUGGGACUGGGGGCUUGUGGCCCACUACCAGGCUCCGAGGGGCAGUGGCAACAGAGGAUUGAGCAUCA
B22: chr9:91931296:91931297:+_ENSG00000123975_ENST00000314355|hu_hu|hu_hu_hu_mus_True|78_78 (ssRNA)
RNA: GGGAGUUCUACAGUCCGACGAUCAGAUUAGAUGAUCCCAGCUGCACUUCAUUUUUGUUGAUCUUUUGGAAGAGGUCGUCUAAAGAGAAGAAUAUGCGGUUCUGGCUCAUGAAUCAUGUAAUGAACCCAUCCUAGACUCUGUUGCAACAGAGGAUUGAGCAUCA

These binders were tested against T1, UNK ZnF1-3 (assay: nsRBNS (natural sequence RNA bind-n-seq); RBNS binding buffer (assumed for nsRBNS): 25 mM Tris pH 7.5, 150 mM KCl, 3 mM MgCl2, 0.01% Triton X-100, 500 ug/ml BSA, 20 U/ml SUPERase-In, 4 C; UNK is unkempt and MSI1 is Musashi-1; names of the RNAs are library labels; protein concentration not given here; high values mean tight binding).
Work on B1 yielded a binding signal of 0.598 enrichment R.
In the case of B2, the binding signal is reported as 1.22 enrichment R.
B3 gave a binding signal of 1.24 enrichment R.
For B4, the binding signal was 2.92 enrichment R.
Work on B5 yielded a binding signal of 0.887 enrichment R.
B6 showed a binding signal of 0.76 enrichment R.
For B7, the binding signal was 0.641 enrichment R.
B8 showed a binding signal of 0.384 enrichment R.
Work on B9 yielded a binding signal of 0.737 enrichment R.
B10 showed a binding signal of 0.969 enrichment R.
Binder B11 has a binding signal of 1.77 enrichment R.
In the case of B12, the binding signal is reported as 0.364 enrichment R.
Binder B13 has a binding signal of 0.672 enrichment R.
B14 showed a binding signal of 0.593 enrichment R.
B15 gave a binding signal of 1.54 enrichment R.
Binder B16 has a binding signal of 1.19 enrichment R.
Binder B17 has a binding signal of 1.46 enrichment R.
Work on B18 yielded a binding signal of 0.423 enrichment R.
In the case of B19, the binding signal is reported as 1.27 enrichment R.
In the case of B20, the binding signal is reported as 1.82 enrichment R.
B21 was tested, and the binding signal was 1.17 enrichment R.
For B22, the binding signal was 1.07 enrichment R.
